# Assay results as given in the supplement of paper PMC8728848.
# This is one part of the list.
# Assays:
# Assay in all cases: glycan array binding signal (z-score within array); higher = stronger binding
# Details in all cases: glycan notation: IUPAC condensed, linker removed
# [1] = target: Fuc(a1-2)Gal(b1-4)GlcNAc(b1-3)Gal(b1-4)GlcNAc(b1-2)Man(a1-3)[Fuc(a1-2)Gal(b1-4)GlcNAc(b1-3)Gal(b1-4)GlcNAc(b1-2)Man(a1-6)]Man(b1-4)GlcNAc(b1-4)GlcNAc
# Summary of the method: (§1)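 Glycan array data came from 3228 arrays in the Consortium for Functional Glycomics database, and only arrays with an available protein sequence were kept. Glycan names were put into IUPAC-condensed notation, and columns mapping to the same glycan were averaged. The binding signal is a within-array Z-score, averaged across arrays of one protein sequence run at different concentrations or buffers and across linkers. A negative Z-score can be read as non-binding.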
# [2] = target: Fuc(a1-2)Gal(b1-4)GlcNAc(b1-3)Gal(b1-4)GlcNAc(b1-3)Gal(b1-4)GlcNAc
# Summary of the method: as §1
# [3] = target: Fuc(a1-2)Gal(b1-4)GlcNAc(b1-3)GalNAc
# Summary of the method: as §1
# [4] = target: Fuc(a1-2)Gal(b1-4)GlcNAc(b1-3)[Fuc(a1-2)Gal(b1-4)GlcNAc(b1-6)]GalNAc
# Summary of the method: as §1
# [5] = target: Fuc(a1-2)Gal(b1-4)GlcNAc(b1-3)[Fuc(a1-3)[Gal(b1-4)]GlcNAc(b1-6)]Gal(b1-4)Glc
# Summary of the method: as §1
# [6] = target: Fuc(a1-2)Gal(b1-4)GlcNAc(b1-6)GalNAc
# Summary of the method: as §1
# [7] = target: Fuc(a1-2)Gal(b1-4)GlcNAc6S
# Summary of the method: as §1
# [8] = target: Fuc(a1-2)Gal(b1-4)[Fuc(a1-3)]GlcNAc
# Summary of the method: as §1
# [9] = target: Fuc(a1-2)Gal(b1-4)[Fuc(a1-3)]GlcNAc(b1-2)Man(a1-3)[Fuc(a1-2)Gal(b1-4)[Fuc(a1-3)]GlcNAc(b1-2)Man(a1-6)]Man(b1-4)GlcNAc(b1-4)[Fuc(a1-6)]GlcNAc
# Summary of the method: as §1
# [10] = target: Fuc(a1-2)Gal(b1-4)[Fuc(a1-3)]GlcNAc(b1-2)[Fuc(a1-2)Gal(b1-4)[Fuc(a1-3)]GlcNAc(b1-4)]Man(a1-3)[Fuc(a1-2)Gal(b1-4)[Fuc(a1-3)]GlcNAc(b1-2)Man(a1-6)]Man(b1-4)GlcNAc(b1-4)GlcNAc
# Summary of the method: as §1
# [11] = target: Fuc(a1-2)Gal(b1-4)[Fuc(a1-3)]GlcNAc(b1-3)Gal(b1-4)[Fuc(a1-3)]GlcNAc
# Summary of the method: as §1
# [12] = target: Fuc(a1-2)Gal(b1-4)[Fuc(a1-3)]GlcNAc(b1-3)Gal(b1-4)[Fuc(a1-3)]GlcNAc(b1-3)Gal(b1-4)[Fuc(a1-3)]GlcNAc
# Summary of the method: as §1
# [13] = target: Fuc(a1-2)Gal(b1-4)[Fuc(a1-3)]GlcNAc(b1-3)GalNAc
# Summary of the method: as §1
# [14] = target: Fuc(a1-2)Gal(b1-4)[Fuc(a1-3)]GlcNAc(b1-3)[Neu5Ac(a2-6)Gal(b1-4)GlcNAc(b1-6)]Gal(b1-4)Glc
# Summary of the method: as §1
# [15] = target: Fuc(a1-2)Gal3S(b1-4)GlcNAc
# Summary of the method: as §1
# [16] = target: Fuc(a1-2)Gal6S(b1-3)GlcNAc
# Summary of the method: as §1
# [17] = target: Fuc(a1-2)Gal6S(b1-3)GlcNAc6S
# Summary of the method: as §1
# [18] = target: Fuc(a1-2)Gal6S(b1-4)Glc
# Summary of the method: as §1
# [19] = target: Fuc(a1-2)Gal6S(b1-4)Glc6S
# Summary of the method: as §1
# [20] = target: Fuc(a1-2)[Gal(a1-3)]Gal
# Summary of the method: as §1
# [21] = target: Fuc(a1-2)[Gal(a1-3)]Gal(b1-3)GalNAc
# Summary of the method: as §1
# [22] = target: Fuc(a1-2)[Gal(a1-3)]Gal(b1-3)GalNAc(b1-3)Gal(a1-4)Gal(b1-4)Glc
# Summary of the method: as §1
# [23] = target: Fuc(a1-2)[Gal(a1-3)]Gal(b1-3)GlcNAc
# Summary of the method: as §1
# [24] = target: Fuc(a1-2)[Gal(a1-3)]Gal(b1-3)GlcNAc(b1-2)Man(a1-3)[Fuc(a1-2)[Gal(a1-3)]Gal(b1-3)GlcNAc(b1-2)Man(a1-6)]Man(b1-4)GlcNAc(b1-4)GlcNAc
# Summary of the method: as §1
# [25] = target: Fuc(a1-2)[Gal(a1-3)]Gal(b1-3)GlcNAc(b1-2)Man(a1-3)[Fuc(a1-2)[Gal(a1-3)]Gal(b1-3)GlcNAc(b1-2)Man(a1-6)]Man(b1-4)GlcNAc(b1-4)[Fuc(a1-6)]GlcNAc
# Summary of the method: as §1
# [26] = target: Fuc(a1-2)[Gal(a1-3)]Gal(b1-3)GlcNAc(b1-3)GalNAc
# Summary of the method: as §1
# [27] = target: Fuc(a1-2)[Gal(a1-3)]Gal(b1-3)GlcNAc(b1-6)GalNAc
# Summary of the method: as §1
# [28] = target: Fuc(a1-2)[Gal(a1-3)]Gal(b1-4)Glc
# Summary of the method: as §1
# [29] = target: Fuc(a1-2)[Gal(a1-3)]Gal(b1-4)GlcNAc
# Summary of the method: as §1
# [30] = target: Fuc(a1-2)[Gal(a1-3)]Gal(b1-4)GlcNAc(b1-2)Man
# Summary of the method: as §1
# [31] = target: Fuc(a1-2)[Gal(a1-3)]Gal(b1-4)GlcNAc(b1-2)Man(a1-3)[Fuc(a1-2)[Gal(a1-3)]Gal(b1-4)GlcNAc(b1-2)Man(a1-6)]Man(b1-4)GlcNAc(b1-4)GlcNAc
# Summary of the method: as §1
# [32] = target: Fuc(a1-2)[Gal(a1-3)]Gal(b1-4)GlcNAc(b1-2)Man(a1-3)[Fuc(a1-2)[Gal(a1-3)]Gal(b1-4)GlcNAc(b1-2)Man(a1-6)]Man(b1-4)GlcNAc(b1-4)[Fuc(a1-6)]GlcNAc
# Summary of the method: as §1
# [33] = target: Fuc(a1-2)[Gal(a1-3)]Gal(b1-4)GlcNAc(b1-3)GalNAc
# Summary of the method: as §1
# [34] = target: Fuc(a1-2)[Gal(a1-3)]Gal(b1-4)GlcNAc(b1-3)[Fuc(a1-2)[Gal(a1-3)]Gal(b1-4)GlcNAc(b1-6)]GalNAc
# Summary of the method: as §1
# [35] = target: Fuc(a1-2)[Gal(a1-3)]Gal(b1-4)GlcNAc(b1-6)GalNAc
# Summary of the method: as §1
# [36] = target: Fuc(a1-2)[Gal(a1-3)]Gal(b1-4)[Fuc(a1-3)]Glc
# Summary of the method: as §1
# [37] = target: Fuc(a1-2)[Gal(a1-3)]Gal(b1-4)[Fuc(a1-3)]GlcNAc
# Summary of the method: as §1
# [38] = target: Fuc(a1-2)[Gal(a1-3)]Gal(b1-4)[Fuc(a1-3)]GlcNAc(b1-3)GalNAc
# Summary of the method: as §1
# [39] = target: Fuc(a1-2)[Gal(a1-4)]Gal(b1-4)GlcNAc
# Summary of the method: as §1
# [40] = target: Fuc(a1-2)[GalNAc(a1-3)]Gal
# Summary of the method: as §1
# [41] = target: Fuc(a1-2)[GalNAc(a1-3)]Gal(b1-3)GalNAc(a1-3)[Fuc(a1-2)]Gal(b1-4)GlcNAc
# Summary of the method: as §1
# [42] = target: Fuc(a1-2)[GalNAc(a1-3)]Gal(b1-3)GalNAc(b1-3)Gal(a1-4)Gal(b1-4)Glc
# Summary of the method: as §1
# [43] = target: Fuc(a1-2)[GalNAc(a1-3)]Gal(b1-3)GlcNAc
# Summary of the method: as §1
# [44] = target: Fuc(a1-2)[GalNAc(a1-3)]Gal(b1-3)GlcNAc(b1-2)Man(a1-3)[Fuc(a1-2)[GalNAc(a1-3)]Gal(b1-3)GlcNAc(b1-2)Man(a1-6)]Man(b1-4)GlcNAc(b1-4)GlcNAc
# Summary of the method: as §1
# [45] = target: Fuc(a1-2)[GalNAc(a1-3)]Gal(b1-3)GlcNAc(b1-2)Man(a1-3)[Fuc(a1-2)[GalNAc(a1-3)]Gal(b1-3)GlcNAc(b1-2)Man(a1-6)]Man(b1-4)GlcNAc(b1-4)[Fuc(a1-6)]GlcNAc
# Summary of the method: as §1
binder,measurement,setting,value
"LgFlo1 (Saccharomyces pastorianus), B3IUA8 (protein) SGSTQACLPVGSRKNGMNVNFYKYSLQDSTTYSDPQYMAYKYSDTKKLGSVSGQTHLSIYYGPNTAFWNTASWSSDLFGFYTTPTNVTVEMTGYFLPPQTGSYTFKFATVDDSAILSVGGSIAFECCAQEQPPITSTDFTINGIKPWDAATPTDIKGSTYMYAGYYYPIKIVYSNAKALARLPVSVVLPDGTEVNDDFEGYVYSFDDDLSQSNCTIPDPSKHTTS",glycan array binding signal (z-score),[1],-0.274
same,glycan array binding signal (z-score),[2],-0.091
same,glycan array binding signal (z-score),[3],-0.305
same,glycan array binding signal (z-score),[4],-0.168
same,glycan array binding signal (z-score),[5],0.07
same,glycan array binding signal (z-score),[6],-0.239
same,glycan array binding signal (z-score),[7],0.383
same,glycan array binding signal (z-score),[8],-0.276
same,glycan array binding signal (z-score),[9],1.1
same,glycan array binding signal (z-score),[10],0.067
same,glycan array binding signal (z-score),[11],-0.242
same,glycan array binding signal (z-score),[12],-0.263
same,glycan array binding signal (z-score),[13],0.006
same,glycan array binding signal (z-score),[14],-0.325
same,glycan array binding signal (z-score),[15],-0.283
same,glycan array binding signal (z-score),[16],-0.374
same,glycan array binding signal (z-score),[17],1.44
same,glycan array binding signal (z-score),[18],-0.238
same,glycan array binding signal (z-score),[19],-0.317
same,glycan array binding signal (z-score),[20],-0.403
same,glycan array binding signal (z-score),[21],-0.089
same,glycan array binding signal (z-score),[22],-0.417
same,glycan array binding signal (z-score),[23],0.172
same,glycan array binding signal (z-score),[24],-0.269
same,glycan array binding signal (z-score),[25],-0.015
same,glycan array binding signal (z-score),[26],11.9
same,glycan array binding signal (z-score),[27],-0.32
same,glycan array binding signal (z-score),[28],-0.115
same,glycan array binding signal (z-score),[29],-0.213
same,glycan array binding signal (z-score),[30],-0.175
same,glycan array binding signal (z-score),[31],0.01
same,glycan array binding signal (z-score),[32],11.9
same,glycan array binding signal (z-score),[33],-0.074
same,glycan array binding signal (z-score),[34],2.44
same,glycan array binding signal (z-score),[35],-0.087
same,glycan array binding signal (z-score),[36],-0.326
same,glycan array binding signal (z-score),[37],-0.173
same,glycan array binding signal (z-score),[38],-0.045
same,glycan array binding signal (z-score),[39],-0.306
same,glycan array binding signal (z-score),[40],-0.199
same,glycan array binding signal (z-score),[41],0.035
same,glycan array binding signal (z-score),[42],-0.256
same,glycan array binding signal (z-score),[43],0.577
same,glycan array binding signal (z-score),[44],-0.322
same,glycan array binding signal (z-score),[45],0.861
